In article PMC6212790:
The list shows a part of the results. At the low end of the ranking the order means little.

What follows are sequences tested against T1, GST-Rok-C97-191 (UniProt O34857) (assay: protein binding microarray). Conditions: Rok is a gene silencer of Bacillus subtilis; high values mean tight binding; most listed sequences are background and not binding sites; double strand, one strand shown.
T1 sequence: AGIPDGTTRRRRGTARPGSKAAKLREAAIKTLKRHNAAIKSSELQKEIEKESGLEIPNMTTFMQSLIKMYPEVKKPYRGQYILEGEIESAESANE
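Note: rank score from −0.5 (least bound) to 0.5 (best bound).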

Sequence | binding signal
CTGTTGTA | 0.111 E-score
CTGTAAGA | 0.106 E-score
CCAAGTAG | 0.0496 E-score
CGGTGTAG | -0.0885 E-score
AGCGAATA | 0.0128 E-score
CAATGTAG | 0.26 E-score
CTTCGGGA | -0.0954 E-score
ACCGACGA | -0.0294 E-score
CACTTAGA | -0.0634 E-score
GCGCGCGA | 0.139 E-score
AGAGCGCT | -0.156 E-score
AGTCCAGA | 0.062 E-score
AGCGGCTC | -0.0681 E-score
CCCGATCG | -0.0607 E-score
CACAACAG | -0.115 E-score
CCTGTCGC | -0.335 E-score
GAACTCCA | 0.044 E-score
CACACGTA | 0.0779 E-score
CGCGTAGA | 0.0474 E-score
GGAAGTCC | -0.143 E-score
ATGAGCCG | -0.128 E-score
ATCATCAT | 0.0703 E-score
CACGAAGA | -0.182 E-score
TGTAACAA | 0.199 E-score
AGTCACTG | -0.0498 E-score

Sequence | binding signal
GCATGTAA | 0.0226 E-score
GTGGTCTA | 0.12 E-score
AGCTCTTG | 0.0373 E-score
ATCTTCTC | 0.19 E-score
GATGGCAA | -0.0662 E-score
CGCCGGGC | -0.295 E-score
CATACCTA | 0.248 E-score
AAGTGAAA | 0.0644 E-score
ACGACGAG | 0.00446 E-score
AAACCATG | -0.0133 E-score
TATCCTCA | 0.0877 E-score
AAGCGAAA | -0.0979 E-score
ACACAAGT | 0.106 E-score
AGTTTTGC | 0.21 E-score
ACGTTGAG | -0.0141 E-score
GAAATTAA | 0.278 E-score
ACCATGAT | 0.145 E-score
TAACTCGA | -0.00764 E-score
ATGCTACG | 0.0354 E-score
AAACCCAT | -0.101 E-score
CGTCCAAC | -0.227 E-score
ACTGCCCG | -0.113 E-score
ATGTACAA | 0.317 E-score
CTCCTACC | -0.0472 E-score
CCAAGACC | -0.00995 E-score

Sequence | binding signal
AAATAATG | 0.24 E-score
AGTCGCAA | -0.123 E-score
ATTAGTAC | 0.269 E-score
ACGACTTA | 0.051 E-score
ATTGACCA | 0.139 E-score
ATTACCCG | 0.0583 E-score
TACAGTCA | 0.144 E-score
GCCTCGAA | -0.00639 E-score
AGACTCCC | -0.161 E-score
TACAGCGA | 0.0672 E-score
ACCTCTTG | 0.072 E-score
CTACAAGC | 0.0458 E-score
CAGTCTTC | -0.0268 E-score
GCAGTCAC | 0.00474 E-score
ATGGCGTC | -0.242 E-score
ATGTTACG | 0.0805 E-score
CGGAAGCC | -0.232 E-score
CAGACGGA | -0.1 E-score
CTGTCCCA | -0.0317 E-score
AAGGGCGG | -0.321 E-score
CTTGTGGA | -0.119 E-score
CGGCGCGA | -0.111 E-score
CATATAGA | 0.144 E-score
AGACAACC | -0.0243 E-score
CGAAAAGC | 0.143 E-score

Sequence | binding signal
CGCCGATC | -0.291 E-score
AAGCTATT | 0.147 E-score
AGCCATTA | -0.0752 E-score
ACAACGTC | -0.0982 E-score
GAAGTGTC | -0.143 E-score
ATTGGATA | 0.108 E-score
ACGAATAG | 0.0145 E-score
AGACAGAC | -0.187 E-score
CGACGTCC | -0.262 E-score
GAATCGGC | -0.0283 E-score
AGTAGATC | 0.323 E-score
CCCATAAC | 0.0404 E-score
ACTGCTTC | -0.207 E-score
CCCAAAGG | -0.408 E-score
GGAGCATA | 0.019 E-score
AGCCGTAC | 0.169 E-score
AGAGGGAG | -0.165 E-score
ATTAGTTG | 0.118 E-score
AGCACACG | 0.0455 E-score
AACGTGTG | 0.0755 E-score
GTTTGCCA | -0.132 E-score
ACCCTTTC | -0.214 E-score
TCCATCAA | -0.0864 E-score
CTAATCAC | 0.0221 E-score
AAATTTGC | 0.141 E-score

Sequence | binding signal
AGGCCGAC | -0.376 E-score
CTCTTTGA | -0.00994 E-score
ATAAGTTA | 0.256 E-score
AAAACTAT | 0.415 E-score
AGTGTTTC | 0.0568 E-score
CTGTGGGC | -0.211 E-score
AAAGGCAC | -0.116 E-score
ACGGCAGC | -0.322 E-score
AAGCGACA | -0.136 E-score
CAGGCGTA | 0.0509 E-score
CTGCATAC | 0.062 E-score
CCTAACCC | -0.201 E-score
GACGGAAC | -0.187 E-score
CCGACGTA | -0.0042 E-score
AGGTCCTC | -0.0779 E-score
GAGGTGGA | -0.214 E-score
AGGGCACC | -0.246 E-score
ATACTTCA | 0.0731 E-score
ATCAAAGC | 0.0269 E-score
CGCTTAGA | -0.0215 E-score
AAGGCCAA | -0.251 E-score
ATTGCGTG | 0.0835 E-score
AAGGGTCA | -0.251 E-score
AAGCCCTC | -0.411 E-score
AACCACTA | 0.0382 E-score

Sequence | binding signal
AGAGTCAA | -0.277 E-score
CTGAGGAA | -0.0796 E-score
AGATGGAT | -0.0714 E-score
GTGCCTTA | -0.0896 E-score
CTCCACGA | -0.113 E-score
GGCTGCCA | -0.165 E-score
GCACAGAA | -0.0247 E-score
GGATTCCA | -0.105 E-score
TGCTTACA | -0.0436 E-score
GCAACACC | -0.0846 E-score
ACCTACCA | 0.31 E-score
CGGGTTTC | -0.143 E-score
ACAGGCCC | -0.293 E-score
GCGCCGCC | -0.346 E-score
CAGCAGAC | -0.175 E-score
GTCGATAA | 0.16 E-score
GGTGCACA | -0.187 E-score
AGGAACAT | 0.0671 E-score
GAAACTGA | 0.0667 E-score
GCCTCAAC | -0.0981 E-score
ACGCCACG | -0.101 E-score
GTTGATGA | -0.0318 E-score
CTAGTTTA | 0.378 E-score
AAATGTGT | 0.244 E-score
ACTCCACG | -0.154 E-score

Sequence | binding signal
CGGCGAAC | -0.0588 E-score
ACGGACAA | -0.0239 E-score
GCCTGTAC | -0.195 E-score
CAGAACGC | 0.0176 E-score
AAGTACCG | 0.113 E-score
CGCAACTC | 0.00512 E-score
ACCGAACA | -0.155 E-score
CAGTAGTC | -0.151 E-score
CTCAGATC | 0.00379 E-score
GGTTGCAC | -0.242 E-score
GCTGTTAA | 0.063 E-score
AATAAAGC | 0.132 E-score
CTATATCA | 0.185 E-score
CAGTGACG | -0.105 E-score
ACTGACTG | -0.281 E-score
AACATGCC | -0.112 E-score
ATCAACAT | 0.00677 E-score
CACTTGGC | -0.143 E-score
ACTCACGA | -0.0693 E-score
CATGTAAC | 0.0988 E-score
AATTCAAA | -0.0564 E-score
CTTGACTC | -0.217 E-score
